These are yes or no findings as the source states them, for the method shown. In cells and extracts the contact can be indirect. Some results given as binding are weak or reduced against the parent protein; the word gives no strength. For some assays here: Tags and fused reporters may be left off the sequences shown.

Chains of the proteins cited; added tags and fusions are not shown.
UniProt P10415: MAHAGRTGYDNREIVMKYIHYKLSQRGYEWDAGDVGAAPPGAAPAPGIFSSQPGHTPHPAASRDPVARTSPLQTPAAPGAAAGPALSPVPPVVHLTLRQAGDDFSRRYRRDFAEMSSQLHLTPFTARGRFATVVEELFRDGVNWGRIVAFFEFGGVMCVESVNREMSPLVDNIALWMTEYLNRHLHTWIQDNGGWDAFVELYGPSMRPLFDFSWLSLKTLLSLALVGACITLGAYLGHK
UniProt Q07817: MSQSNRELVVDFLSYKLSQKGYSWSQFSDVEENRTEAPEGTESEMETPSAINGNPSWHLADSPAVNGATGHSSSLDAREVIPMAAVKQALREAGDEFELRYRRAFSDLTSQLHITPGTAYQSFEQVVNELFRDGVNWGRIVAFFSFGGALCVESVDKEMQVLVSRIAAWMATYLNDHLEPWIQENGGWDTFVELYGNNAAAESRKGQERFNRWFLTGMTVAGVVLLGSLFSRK
UniProt Q07820: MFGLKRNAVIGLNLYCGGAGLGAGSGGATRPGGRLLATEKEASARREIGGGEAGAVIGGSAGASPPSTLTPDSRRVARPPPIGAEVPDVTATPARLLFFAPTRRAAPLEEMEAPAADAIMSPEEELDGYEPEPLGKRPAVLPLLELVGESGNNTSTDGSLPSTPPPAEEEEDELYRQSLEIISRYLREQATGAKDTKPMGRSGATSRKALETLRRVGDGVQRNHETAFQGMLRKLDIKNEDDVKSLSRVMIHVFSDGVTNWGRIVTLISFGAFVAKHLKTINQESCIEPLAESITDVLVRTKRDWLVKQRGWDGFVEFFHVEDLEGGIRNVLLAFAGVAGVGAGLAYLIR

This passage reports binding results from article PMC8298518.

One assay concerns the target T1, FLAG-BCL2A1 (UniProt Q16548).
T1 sequence: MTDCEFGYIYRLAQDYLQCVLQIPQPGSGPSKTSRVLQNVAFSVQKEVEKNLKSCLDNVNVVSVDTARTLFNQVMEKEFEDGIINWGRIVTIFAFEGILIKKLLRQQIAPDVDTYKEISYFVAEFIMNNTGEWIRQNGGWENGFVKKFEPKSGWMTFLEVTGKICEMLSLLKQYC
The assay can be described thus: co-IP; K562 cells cotransfected with 3 µg of plasmids encoding HA-GBP2 and FLAG-BCL-2 family members.

The target of another assay is FLAG-BCL-2 (UniProt P10415). Described as above.
In another assay the target is FLAG-BCL-xL (UniProt Q07817). The assay is described as above.
The target in assay [1] is Flag-tagged MCL-1 WT (human) (UniProt Q07820). Described as above.
Assay [2] deals with endogenous MCL-1 (human (endogenous in K562 and HL-60)) (UniProt Q07820). In words: co-IP; K562 cells transfected with plasmids encoding GBP1 or GBP2 (3 µg; HA-GBP2 0, 3 or 6 µg), immunoprecipitation.
The target is the same in assay [3]. The assay can be described thus: co-IP; endogenous proteins from HL-60 lysates, immunoprecipitation and western blot, IgG as control. (In western blotting, separated proteins are transferred to a membrane and probed.)
Assay [4] has the same target. The assay can be described thus: co-IP; endogenous proteins from K562 lysates, immunoprecipitation and western blot, IgG as control; also after HA-GBP2 transfection (0, 3, 6 µg), GBP2 siRNA (200 nM), GBP2 knock-out, stable GBP1 or GBP2 overexpression, or paclitaxel (1 µM, 24 h).
For assay [5], the target named is Flag-tagged MCL-1 WT (human) (UniProt Q07820). In words: co-IP; 293T cells (2 x 10^6) cotransfected for 24 h; lysates immunoprecipitated with anti-FLAG.
Assay [6] deals with endogenous MCL-1 (human (endogenous in K562 and HL-60)) (UniProt Q07820). The assay can be described thus: co-IP; HL-60 cells (Supplementary Fig. 1b).
In assay [7] the target is Flag-tagged MCL-1 WT (human) (UniProt Q07820). The assay can be described thus: co-IP; immunoprecipitation experiments using mutants of MCL-1 and GBP1 (Supplementary Fig. 2a, b).

B1: HA-GBP2 (protein, UniProt P32456 1-591)
chain: MAPEINLPGPMSLIDNTKGQLVVNPEALKILSAITQPVVVVAIVGLYRTGKSYLMNKLAGKKNGFSLGSTVKSHTKGIWMWCVPHPKKPEHTLVLLDTEGLGDIEKGDNENDSWIFALAILLSSTFVYNSMGTINQQAMDQLHYVTELTDRIKANSSPGNNSVDDSADFVSFFPAFVWTLRDFTLELEVDGEPITADDYLELSLKLRKGTDKKSKSFNDPRLCIRKFFPKRKCFVFDWPAPKKYLAHLEQLKEEELNPDFIEQVAEFCSYILSHSNVKTLSGGIPVNGPRLESLVLTYVNAISSGDLPCMENAVLALAQIENSAAVEKAIAHYEQQMGQKVQLPTETLQELLDLHRDSEREAIEVFMKNSFKDVDQMFQRKLGAQLEARRDDFCKQNSKASSDCCMALLQDIFGPLEEDVKQGTFSKPGGYRLFTQKLQELKNKYYQVPRKGIQAKEVLKKYLESKEDVADALLQTDQSLSEKEKAIEVERIKAESAEAAKKMLEEIQKKNEEMMEQKEKSYQEHVKQLTEKMERDRAQLMAEQEKTLALKLQEQERLLKEGFENESKRLQKDIWDIQMRSKSLEPICNIL
On to B1, for which the binding result with FLAG-BCL2A1 is “no binding”; in the assay with FLAG-BCL-2, “no binding”; with FLAG-BCL-xL it was “no binding”; in assay [1] it was “binds”; in [2], “binds”.

B2: endogenous GBP2 (protein, UniProt P32456 1-591)
chain: B1 chain
In the case of B2, the binding result in assay [3] and in [4] was “binds” in each case.

B3: GBP2 ΔC (domain or fragment, UniProt P32456 1-309)
chain: MAPEINLPGPMSLIDNTKGQLVVNPEALKILSAITQPVVVVAIVGLYRTGKSYLMNKLAGKKNGFSLGSTVKSHTKGIWMWCVPHPKKPEHTLVLLDTEGLGDIEKGDNENDSWIFALAILLSSTFVYNSMGTINQQAMDQLHYVTELTDRIKANSSPGNNSVDDSADFVSFFPAFVWTLRDFTLELEVDGEPITADDYLELSLKLRKGTDKKSKSFNDPRLCIRKFFPKRKCFVFDWPAPKKYLAHLEQLKEEELNPDFIEQVAEFCSYILSHSNVKTLSGGIPVNGPRLESLVLTYVNAISSGDLPC
Regarding B3, the binding entry in assay [5] was “binds”.

B4: HA-GBP1 (protein, UniProt P32455 1-592)
chain: MASEIHMTGPMCLIENTNGRLMANPEALKILSAITQPMVVVAIVGLYRTGKSYLMNKLAGKKKGFSLGSTVQSHTKGIWMWCVPHPKKPGHILVLLDTEGLGDVEKGDNQNDSWIFALAVLLSSTFVYNSIGTINQQAMDQLYYVTELTHRIRSKSSPDENENEVEDSADFVSFFPDFVWTLRDFSLDLEADGQPLTPDEYLTYSLKLKKGTSQKDETFNLPRLCIRKFFPKKKCFVFDRPVHRRKLAQLEKLQDEELDPEFVQQVADFCSYIFSNSKTKTLSGGIQVNGPRLESLVLTYVNAISSGDLPCMENAVLALAQIENSAAVQKAIAHYEQQMGQKVQLPTETLQELLDLHRDSEREAIEVFIRSSFKDVDHLFQKELAAQLEKKRDDFCKQNQEASSDRCSALLQVIFSPLEEEVKAGIYSKPGGYRLFVQKLQDLKKKYYEEPRKGIQAEEILQTYLKSKESMTDAILQTDQTLTEKEKEIEVERVKAESAQASAKMLQEMQRKNEQMMEQKERSYQEHLKQLTEKMENDRVQLLKEQERTLALKLQEQEQLLKEGFQKESRIMKNEIQDLQTKMRRRKACTIS
Turning to B4, the binding entry in assay [2], in assay [6] and in assay [7] was “binds” each time.
